According to PubChem BioAssay AID2147 (National Center for Advancing Translational Sciences (NCATS), 2009):
Screen size: about 230,000 compounds; about 3,600 (1.6%) were called active. The shares of active, inactive and inconclusive entries below differ from those in the screen. The call rests on the fitted dose curve; in most records, active means well fitted inhibition curve with a large enough effect (not every such curve was filed as active); inconclusive means small, poorly fitted or top-dose-only effect, or another doubt; inactive means no such curve, though single readings can be large or run the other way. Where the call is inconclusive, the potency comes from a doubtful curve fit.

target: Lysine-specific demethylase 4E (Homo sapiens) (UniProt B2RXH2); test: qHTS Assay for Inhibitors of Human Jumonji Domain Containing 2E (JMJD2E); details: JMJD2E catalytic domain, FDH-coupled NADH fluorescence (FDH is formaldehyde dehydrogenase); series mostly up to 57.1 µM
Further: nearly all actives have a fitted effect of over 50% in size.
Potency means the concentration at half of the fitted maximal effect; tags describe the fitted curve by direction and shape.

Sequence of UniProt B2RXH2 (B2RXH2 whole entry, looked up, the tested form may be a part): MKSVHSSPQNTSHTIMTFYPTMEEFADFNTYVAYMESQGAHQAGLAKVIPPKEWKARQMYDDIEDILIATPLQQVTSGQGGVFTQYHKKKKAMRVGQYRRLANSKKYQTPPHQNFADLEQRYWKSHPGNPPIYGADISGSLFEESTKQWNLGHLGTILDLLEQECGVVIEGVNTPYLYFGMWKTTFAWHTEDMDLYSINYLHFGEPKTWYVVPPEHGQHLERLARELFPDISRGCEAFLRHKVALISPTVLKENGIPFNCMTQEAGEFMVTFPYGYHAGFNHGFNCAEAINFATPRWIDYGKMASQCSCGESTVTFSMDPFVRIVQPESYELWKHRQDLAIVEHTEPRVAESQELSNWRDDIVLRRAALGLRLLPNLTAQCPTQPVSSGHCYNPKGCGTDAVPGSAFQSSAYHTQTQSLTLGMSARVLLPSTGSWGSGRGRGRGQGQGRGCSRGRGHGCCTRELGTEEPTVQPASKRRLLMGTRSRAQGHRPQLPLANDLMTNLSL

Structure (SMILES)	Potency
COC(=O)c1ccc(NC(=O)Nc2ccc(OC)cc2)cc1	inconclusive: 28.2 µM [inhibitor, single point]
O=C(/C=C/c1cn(-c2ccccc2)nc1-c1ccc2c(c1)OCCO2)NCCO	inconclusive: 35.5 µM [inhibitor, partial curve]
Cc1cc(C)n(-c2ccc(C(=O)OCC(=O)Nc3ccc(S(=O)(=O)N4CCCCC4)cc3)cc2)n1	inconclusive: 39.8 µM [inhibitor, single point]
COc1ccc(NS(=O)(=O)c2cc(OC)ccc2NC(=O)c2cc(C)oc2C)cc1	inactive
Cc1c(C(=O)NCCN2CCOCC2)oc2ccc(S(=O)(=O)N3CCCCCC3)cc12	inactive
CC[N+]1(CC)CC2=Cc3c(ccc4ccccc34)C(C)C2C1 (stereo not drawn)	inconclusive: 39.8 µM [inhibitor, single point]
CCCc1nc2oc3c(NCCCN(C)C)ncnc3c2c2c1CCCC2	inconclusive: 28.2 µM [inhibitor, partial curve]
CCOC(=O)N1CCN(C(=O)Nc2ccc3nccnc3c2)CC1	inconclusive: 31.6 µM [inhibitor, partial curve]
COCCNC(=O)c1cc2nc3c(c(C(F)(F)F)n2n1)CCc1ccccc1-3	inconclusive: 35.5 µM [inhibitor, single point]
COCC(=O)Nc1ccc(S(=O)(=O)Nc2ccccn2)cc1	inconclusive: 2 µM [inhibitor, full curve, poor fit]
CCC(C)c1ccccc1NC(=O)COC(=O)c1ccc(N2CCCC2)c([N+](=O)[O-])c1 (stereo not drawn)	inactive
CCOC(=O)Cc1csc(NC(=O)CSc2nc(-c3ccccc3)c(C#N)c(=O)[nH]2)n1	inconclusive: 25.1 µM [inhibitor, single point]
CN=C1S/C(=C\c2cc(C)n(-c3ccccc3F)c2C)C(=O)N1C	inconclusive: 39.8 µM [inhibitor, single point]
CC1CCCCN1S(=O)(=O)c1ccc(NC(=O)CSc2nnnn2C)cc1 (stereo not drawn)	inactive
CSc1ncccc1-c1nc2ccccc2[nH]1	inconclusive: 39.8 µM [inhibitor, single point]
COc1cc(NC(=O)c2ccc(Br)o2)c(C(=O)O)cc1OC	inconclusive: 39.8 µM [inhibitor, single point]
Cc1ccc(NC(=O)Nc2cnccn2)cc1Cl	inconclusive: 35.5 µM [inhibitor, single point]
CCN1CCCC1CN(Cc1cc2ccc(C)c(C)c2[nH]c1=O)C(=O)Nc1ccccc1OC (stereo not drawn)	inconclusive: 12.6 µM [inhibitor, partial curve]
